± gives the standard error. Variants at the floor of the assay are shown more often than the library holds them.
B1: glmS ribozyme (parent)
chain: AUAAAAGCGCCAGAACUACAGAAAUGUAGUUGACGAGGAGGAGGUUUAUCGAAUUUUCGGCGGAUGCCUCCAAA

What was measured:
Details in all cases: with glucosamine-6-phosphate
glucosamine-6-phosphate [1] = variants of: B1; assay: self-cleavage kobs at 40 uM GlcN6P; higher = faster cleavage; RNA array
Procedure, shortened: (§1)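 Barcoded ribozyme variants were transcribed in situ on sequenced MiSeq chips by E. coli RNA polymerase. At 37 °C, a hybridised Cy3 probe tracked them while glucosamine-6-phosphate (40 μM to 10 mM) in HEPES/KCl/Mg(OAc)2 buffer flowed in and tiles were imaged over ~14 h. Per-tile medians of signals normalised to baseline and to non-cleaving reference variants were fit to one- or two-exponential decays, giving kobs. kcat and KM came from weighted Michaelis–Menten fits across concentrations.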

glucosamine-6-phosphate [2] = variants of: B1; assay: self-cleavage kobs at 640 uM GlcN6P; higher = faster cleavage; RNA array
Procedure, shortened: as §1

glucosamine-6-phosphate [3] = variants of: B1; assay: self-cleavage kobs at 2500 uM GlcN6P; higher = faster cleavage; RNA array
Procedure, shortened: as §1

glucosamine-6-phosphate [4] = variants of: B1; assay: self-cleavage kobs at 160 uM GlcN6P; higher = faster cleavage; RNA array
Procedure, shortened: as §1

glucosamine-6-phosphate [5] = variants of: B1; assay: self-cleavage kobs at 10000 uM GlcN6P; higher = faster cleavage; RNA array
Procedure, shortened: as §1

Row | Variant | self-cleavage kobs at 40 uM GlcN6P (glucosamine-6-phosphate [1]) | self-cleavage kobs at 640 uM GlcN6P (glucosamine-6-phosphate [2]) | self-cleavage kobs at 2500 uM GlcN6P (glucosamine-6-phosphate [3]) | self-cleavage kobs at 160 uM GlcN6P (glucosamine-6-phosphate [4]) | self-cleavage kobs at 10000 uM GlcN6P (glucosamine-6-phosphate [5])
1 | AUAAAAGCGCGAGAACUACAGAAAUGUAGUUGACGAGCAGGAGGUUUAUCGAAUUUUCGGCGGAUGCCUCCAAA | < 1e-05 s⁻¹ | < 1e-05 s⁻¹ | < 1e-05 s⁻¹ |  | 
2 | AUAAAAGCGCGAGAACUACAGAAAUGUAGUUGACGAGGAGGAGGUUUAUCGAAUUUUCGGCCGAUGCCUCCAAA | < 1e-05 s⁻¹ |  |  | < 1e-05 s⁻¹ | < 1e-05 s⁻¹
3 | AUAAAAGCGCGAGAACUACAGAAAUGUAGUUGACGAGGAGGAGGUUUAUCGAAUUUUCGGCCGGUGCGUCCAAA | < 1e-05 s⁻¹ |  |  |  | < 1e-05 s⁻¹
4 | AUAAAAGCGCGAGAACUACAGAAAUGUAGUUGACGAGGAGGAGGUUUAUCGAAUUUUCGGCGCAUGCCUCCAAA | < 1e-05 s⁻¹ | < 1e-05 s⁻¹ | < 1e-05 s⁻¹ |  | < 1e-05 s⁻¹
5 | AUAAAAGCGCGAGAACUACAGAAAUGUAGAUGACGAGGAGGAGGUUUAUCGAAUUUUCGGCGGAUGCCUCCAAA | < 1e-05 s⁻¹ |  |  |  | 
6 | AUAAAAGCGCGAGAACUACAGAAAUGUAGCUGACUAGGAGGAGGUUUAUCGAAUUUUCGGCCGAUGCCUCCAAA | < 1e-05 s⁻¹ |  |  |  | 
7 | AUAAAAGCGCGAGAACUACAGAAAUGUAGUUGACGAGGAGGAGGUUUAUCGAAUUAUCGGCGGAUGCCUCCAAA | < 1e-05 s⁻¹ | < 1e-05 s⁻¹ | < 1e-05 s⁻¹ |  | 
8 | AUAAAAGCGCUAGGACUACAGAAAUGUAGUUGACGAGGAGGAGGUUUAUCGAAUUUUCGUCGGAUGCCUUCAAA | < 1e-05 s⁻¹ |  |  |  | 
9 | AUAAAAGCGCUAGAACUACAGAAAUGUAGUUGACGCGGAGGAGGGUUAUCGAAUUUUCGGCGGAUGCCUCCAAA | < 1e-05 s⁻¹ |  |  |  | < 1e-05 s⁻¹
10 | AUAAAAGCGCUAGAACUACAGAAAUGUAGUUGACGAGGAGGAGGUUUGUCGAGUUUUCGGCGGAUGCCUCCAAA | < 1e-05 s⁻¹ |  |  |  | 
11 | AUAAAAGCGCUAGAACUACAGAAAUGUAGUUGACGAGGAGGAGGUUUUUCGAAUUUUCGGCGGAUGCCUCCAAA | < 1e-05 s⁻¹ | < 1e-05 s⁻¹ |  | < 1e-05 s⁻¹ | 
12 | AUAAAAGCGCUAGAAGUACAGAAAUGUAGUUGACGAGGAGGAGGUUUAGCGAAUUUUCGGCGGAUGCCUCCAAA | < 1e-05 s⁻¹ | < 1e-05 s⁻¹ | < 1e-05 s⁻¹ | < 1e-05 s⁻¹ | 
13 | AUAAAAGCGCUAGAAUUACAGAAAUGUAGUCGACGAGGAGGAGGUUUAUCGAAUUGUCGGCGGUUGCCUCCAAA | < 1e-05 s⁻¹ | < 1e-05 s⁻¹ |  |  | 
14 | AUAAAAGCGCUAGAACUACAGAAAUGUAGUUGAGGGGGAAGAGGUUUAUCGUAUUUUCGGCGGAUGCUUCCAAA | < 1e-05 s⁻¹ | < 1e-05 s⁻¹ | < 1e-05 s⁻¹ |  | < 1e-05 s⁻¹
15 | AUAAAAGCGCUAGAACUACAGAAAUGUAGUUGACGAGGAGGAGGUUUAUGGAAUUUUAGGCGGAUGCCUCCAAA | 0.000112 ± 3.6e-05 s⁻¹ | 0.000189 ± 3e-05 s⁻¹ |  | 0.00015 ± 1.7e-05 s⁻¹ | 
